# Assay results taken from the supplement of paper PMC6531468.
# This is one part of the list. Read counts after selection give these values, which scatter widely. Each score is taken over the longer molecules that contain the sequence shown.
# Tests used:
# Test in all cases: 6-mer SELEX enrichment z-score vs GST control; IMP3 is the RNA-binding protein IGF2BP3; higher = more enriched by binding
# IMP3 KH1-4 = settings: construct: KH1-4 (164-579); SELEX round: R4
# Experimental: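 SELEX-seq with GST-tagged IMP3 KH1-4 (Pro164-Lys579) and an N40 RNA pool, round 4. 6-mer z-score of sequence-tag enrichment normalised to the corresponding GST SELEX round; RNA k-mers written as DNA (T for U).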
# IMP3 RRM1-2 = settings: construct: RRM1-2 (1-163); SELEX round: R2
# Experimental: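 SELEX-seq with GST-tagged IMP3 RRM1-2 (Met1-Asn163) and an N40 RNA pool, round 2. 6-mer enrichment z-score normalised to GST SELEX. RNA written as DNA (T = U).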
# IMP3 full-length = IMP3 full-length (UniProt O00425); settings: construct: FL IMP3 (1-579); SELEX round: R4
# Experimental: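 SELEX-seq with GST-tagged full-length IMP3 and an N40 RNA pool, round 4. Each 6-mer is scored as an enrichment z-score of sequence tags containing it, normalised to the matching GST SELEX round. RNA written as DNA (T = U).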
# IMP3 KH1-2 = settings: construct: KH1-2 (164-376); SELEX round: R4
# Experimental: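 SELEX-seq with GST-tagged IMP3 KH1-2 (Pro164-Phe376) and an N40 RNA pool, round 4 (stringent 300/600 mM KCl washes). 6-mer z-score of sequence-tag enrichment normalised to the corresponding GST SELEX round; RNA k-mers written as DNA (T for U).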
# IMP3 KH3-4 = settings: construct: KH3-4 (377-579); SELEX round: R4
# Experimental: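 SELEX-seq with GST-tagged IMP3 KH3-4 (Pro377-Lys579) and an N40 RNA pool, round 4. 6-mer z-score of sequence-tag enrichment normalised to the corresponding GST SELEX round; RNA k-mers written as DNA (T for U).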
# Chain of IMP3 KH1-4 (chain, as listed by the source): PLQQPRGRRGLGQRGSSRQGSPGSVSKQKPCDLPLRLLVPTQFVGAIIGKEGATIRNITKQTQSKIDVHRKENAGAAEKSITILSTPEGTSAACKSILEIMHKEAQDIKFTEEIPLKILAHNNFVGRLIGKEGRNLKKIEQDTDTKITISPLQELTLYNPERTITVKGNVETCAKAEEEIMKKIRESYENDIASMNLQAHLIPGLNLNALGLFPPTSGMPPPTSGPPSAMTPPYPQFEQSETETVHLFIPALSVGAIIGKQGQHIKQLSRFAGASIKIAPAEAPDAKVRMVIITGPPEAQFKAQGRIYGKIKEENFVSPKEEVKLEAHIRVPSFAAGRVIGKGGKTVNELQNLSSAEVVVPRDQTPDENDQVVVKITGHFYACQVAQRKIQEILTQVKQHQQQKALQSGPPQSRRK
# Chain of UniProt O00425 (O00425 whole entry): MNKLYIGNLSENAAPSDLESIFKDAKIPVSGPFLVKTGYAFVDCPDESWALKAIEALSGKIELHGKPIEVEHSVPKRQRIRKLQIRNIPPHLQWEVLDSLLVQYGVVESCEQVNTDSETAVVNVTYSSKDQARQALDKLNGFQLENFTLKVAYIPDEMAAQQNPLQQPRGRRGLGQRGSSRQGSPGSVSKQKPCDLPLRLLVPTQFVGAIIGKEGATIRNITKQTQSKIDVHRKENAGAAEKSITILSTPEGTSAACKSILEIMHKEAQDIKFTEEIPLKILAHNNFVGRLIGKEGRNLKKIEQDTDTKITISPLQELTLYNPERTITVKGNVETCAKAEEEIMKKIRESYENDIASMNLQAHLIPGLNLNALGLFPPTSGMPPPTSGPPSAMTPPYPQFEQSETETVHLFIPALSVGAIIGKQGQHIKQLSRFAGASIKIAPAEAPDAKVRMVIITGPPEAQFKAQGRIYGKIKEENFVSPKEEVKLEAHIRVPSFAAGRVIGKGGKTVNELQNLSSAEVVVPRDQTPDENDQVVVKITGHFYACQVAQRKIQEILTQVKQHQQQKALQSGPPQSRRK
# Chain of IMP3 KH3-4 (chain, as listed by the source): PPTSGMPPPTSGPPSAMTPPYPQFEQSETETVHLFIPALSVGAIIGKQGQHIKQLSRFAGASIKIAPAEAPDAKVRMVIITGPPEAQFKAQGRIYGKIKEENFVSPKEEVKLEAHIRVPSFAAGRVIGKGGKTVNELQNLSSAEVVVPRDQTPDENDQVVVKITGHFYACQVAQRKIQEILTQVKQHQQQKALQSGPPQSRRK
# Chain of IMP3 RRM1-2 (chain, as listed by the source): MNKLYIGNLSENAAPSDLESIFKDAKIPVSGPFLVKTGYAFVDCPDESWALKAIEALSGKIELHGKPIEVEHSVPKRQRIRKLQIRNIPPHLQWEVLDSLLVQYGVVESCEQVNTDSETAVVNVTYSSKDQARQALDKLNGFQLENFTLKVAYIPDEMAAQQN
# Chain of IMP3 KH1-2 (chain, as listed by the source): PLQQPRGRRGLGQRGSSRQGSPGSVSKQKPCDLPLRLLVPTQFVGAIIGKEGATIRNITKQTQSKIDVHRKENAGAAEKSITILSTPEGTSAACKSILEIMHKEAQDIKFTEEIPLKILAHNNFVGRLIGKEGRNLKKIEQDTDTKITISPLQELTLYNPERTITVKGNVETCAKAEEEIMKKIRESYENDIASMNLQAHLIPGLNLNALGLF
Sequence,6-mer SELEX enrichment z-score (IMP3 KH1-4),6-mer SELEX enrichment z-score (IMP3 RRM1-2),6-mer SELEX enrichment z-score (IMP3 full-length),6-mer SELEX enrichment z-score (IMP3 KH1-2),6-mer SELEX enrichment z-score (IMP3 KH3-4)
GCTGAC,-0.623,-0.261,-0.403,-0.582,-0.741
AGAGCG,-4.7,-0.59,-2.33,-4.35,-4.19
TCCTAT,0.733,0.15,-0.027,0.574,0.49
AGTTGT,-0.171,0.197,-0.242,-0.235,-0.069
CGAGTT,-0.987,0.08,-0.473,-0.815,-0.684
ACACCA,0.438,1.99,0.497,0.615,-0.651
ACGTGC,-0.61,-0.19,-0.181,-0.619,-0.729
CAGCGA,-1.54,-0.232,-0.21,-1.39,-1.41
AGAATA,1.31,-1,-0.297,1.13,2.29
GTGGTG,0.059,0.373,-0.008,0.104,0.142
TGGACC,-0.71,-0.288,-0.393,-0.86,-1.1
GGGGCG,0.837,0.235,0.739,1.51,1.35
TTGGGA,-0.163,0.132,0.002,-0.013,0.064
TTAATC,0.782,0.246,0.11,0.64,0.929
TACCAA,-1,-0.459,-1.11,-1.04,-1.33
AATGGC,0.763,-0.106,0.381,0.396,1.03
TGTGTG,0.823,0.266,-0.03,0.485,0.56
GCCGTG,-0.29,-0.272,0.066,-0.279,-0.376
GAAGCA,-0.084,-0.135,0.166,-0.165,-0.12
CGACCC,-1.63,-1.01,-1.36,-1.51,-2.27
CCCGAT,-1.07,-0.734,-0.958,-0.955,-1.35
ACTCAC,-0.328,1.2,-0.082,-0.196,-1.02
CGTGGT,-0.953,0.276,-0.426,-0.814,-0.688
CTGCAG,0.418,0.172,0.495,0.478,0.075

Sequence,6-mer SELEX enrichment z-score (IMP3 KH1-4),6-mer SELEX enrichment z-score (IMP3 RRM1-2),6-mer SELEX enrichment z-score (IMP3 full-length),6-mer SELEX enrichment z-score (IMP3 KH1-2),6-mer SELEX enrichment z-score (IMP3 KH3-4)
GGCGCG,0.343,0.35,0.939,0.485,0.36
ACAGCT,-0.023,0.401,0.52,0.166,-0.151
GGAGCA,0.349,0.468,0.831,0.317,0.279
TCACCC,-0.863,-0.2,-0.872,-0.932,-1.51
CGGCGA,0.178,-0.128,1.28,-0.006,0.478
TTATCG,0.075,0.227,-0.098,-0.003,0.188
TCGTAC,-0.452,0.133,0.016,-0.466,-0.478
TGCAAG,0.304,-0.103,0.058,0.132,0.219
TCGGCG,0.264,0.466,1.31,0.277,0.442
TCATGG,0.292,0.706,0.847,0.24,0.313
AGGTGT,-0.117,0.271,0.057,-0.047,0.122
CTGTAG,-0.327,0.058,-0.28,-0.31,-0.219
TAAGAG,-0.201,-0.671,-0.496,-0.253,0.297
GCACGC,1.19,0.606,1.67,0.971,0.402
GCCACT,0.474,0.11,0.392,0.323,0.126
CTGATG,-0.034,-0.312,-0.469,-0.044,-0.039
GAGATG,0.221,-0.689,-0.445,0.067,0.438
ACGCAC,0.794,0.83,0.871,0.776,-0.026
ACATTG,0.78,0.767,0.918,0.642,0.694
GTTTAG,-0.108,0.284,-0.109,-0.087,0.161
GCCTAC,-0.637,-0.218,-0.336,-0.524,-0.668
GGGGTC,0.34,0.342,0.483,0.573,0.428
TTAGGT,0.227,0.454,0.23,0.278,0.476
TGAAGT,0.234,-0.396,-0.323,0.079,0.334

Sequence,6-mer SELEX enrichment z-score (IMP3 KH1-4),6-mer SELEX enrichment z-score (IMP3 RRM1-2),6-mer SELEX enrichment z-score (IMP3 full-length),6-mer SELEX enrichment z-score (IMP3 KH1-2),6-mer SELEX enrichment z-score (IMP3 KH3-4)
GGTGAA,0.109,-0.447,-0.102,0.077,0.376
CCTACT,-0.344,-0.119,-0.579,-0.181,-0.418
GACTAA,-0.119,-0.757,-0.935,-0.211,0.223
CGACAC,-0.461,0.289,0.523,-0.595,-1.18
GTGGAC,-0.157,-0.408,-0.086,-0.284,-0.352
TTCATA,1.61,1.5,1.65,2,1.62
CAGCCG,0.001,-0.159,0.64,0.042,-0.467
TTGAAC,-0.382,-0.647,-0.814,-0.47,-0.248
TCAGTC,1.03,0.825,1.18,0.729,0.483
CAACCG,-0.962,-0.605,-0.309,-0.573,-1.55
ATGGAG,0.681,-0.304,0.111,0.391,0.749
GAAATA,0.936,-1.55,-0.815,0.729,1.93
ACTAAA,0.57,-0.929,-1.05,0.587,1.16
ATGGCA,1.53,0.719,1.72,1.07,1.49
AATACG,0.912,-1.04,-0.188,0.455,0.817
AAGAAA,0.271,-2.37,-1.6,0.122,1.65
ATCCCG,-1.05,-0.58,-0.498,-0.879,-1.34
GGCTCA,0.238,0.559,0.873,0.243,0.367
GAGTCG,0.529,-0.112,0.793,0.527,0.406
AGCACC,-0.509,0.203,0.439,-0.535,-1.02
GGACAA,0.538,-0.602,0.039,0.296,0.489
TCGTTA,0.108,0.225,0.037,0.063,0.224
GGAAAT,0.737,-0.956,-0.418,0.384,1.13
CCAATA,0.313,-0.402,-0.382,0.332,0.1

Sequence,6-mer SELEX enrichment z-score (IMP3 KH1-4),6-mer SELEX enrichment z-score (IMP3 RRM1-2),6-mer SELEX enrichment z-score (IMP3 full-length),6-mer SELEX enrichment z-score (IMP3 KH1-2),6-mer SELEX enrichment z-score (IMP3 KH3-4)
CAATGG,0.229,0.181,0.328,0.006,0.177
GTCAAA,-0.908,-0.377,-0.62,-1.02,-0.822
GCCGTC,-0.244,0.176,0.675,-0.141,-0.342
TGTGGC,0.642,0.242,0.415,0.482,0.6
AATGAT,1.8,-0.924,-0.259,1.19,2.61
ACGAGG,-0.618,-0.61,-0.142,-0.538,-0.391
TGTCTC,-0.267,0.618,0.339,-0.098,-0.048
TTTTAT,1.17,0.545,0.395,1.12,1.75
ATACAA,2.31,0.862,1.53,2.67,2.64
GTATCG,-0.413,0.185,-0.093,-0.39,-0.246
TGCTTG,-0.095,0.158,-0.111,-0.077,-0.028
GTGCGT,-1.06,0.381,-0.463,-0.919,-0.772
TTCACA,1.81,2.29,2.09,2.27,1.21
CTCCCG,-0.706,-0.332,-0.484,-0.529,-1.06
GAACGT,-2.07,-0.913,-1.45,-1.97,-1.84
CATTGG,0.045,0.71,0.56,0.036,0.046
CTATGC,0.015,-0.083,-0.143,0.053,0.039
CCGGGG,0.268,-0.397,0.508,0.819,0.243
CGAAAC,-2.27,-1.44,-1.73,-2,-2.26
TTCCTA,0.521,0.029,-0.139,0.494,0.423
GGAAGG,0.907,-0.411,0.343,0.91,0.822
TGGCCA,0.785,-0.018,0.51,0.506,0.612
TTTAGG,0.375,0.39,0.242,0.31,0.668
CCTTAG,-0.18,-0.102,-0.349,-0.205,-0.216

Sequence,6-mer SELEX enrichment z-score (IMP3 KH1-4),6-mer SELEX enrichment z-score (IMP3 RRM1-2),6-mer SELEX enrichment z-score (IMP3 full-length),6-mer SELEX enrichment z-score (IMP3 KH1-2),6-mer SELEX enrichment z-score (IMP3 KH3-4)
CAATCC,-0.383,0.473,-0.252,-0.17,-1.12
ATTGGT,-0.083,0.48,0.076,-0.034,0.056
AGCCCT,-0.653,-0.37,-0.578,-0.592,-0.92
TCAGAA,0.188,0.349,0.474,0.11,0.263
TGATAC,0.263,-0.349,-0.153,0.147,0.212
CCCTGA,-1.18,-0.985,-1.48,-1.19,-1.59
GGGCAA,0.043,0.118,0.613,0.179,0.388
TCACTA,1.17,1.37,0.834,1.12,0.764
TGCCAC,0.09,-0.099,0.062,-0.016,-0.422
GGGATT,0.474,0.049,0.283,0.478,0.696
GGATGC,0.253,-0.176,0.098,0.239,0.249
CTAAGA,-0.162,-0.722,-0.737,-0.291,0.133
ATGGTG,0.542,0.218,0.198,0.4,0.547
GACAAA,-0.321,-1.18,-0.817,-0.384,-0.033
AATTAC,0.923,-0.335,-0.293,1.02,1.45
ACCCTC,-0.87,-0.135,-0.844,-0.766,-1.36
TATTTA,1.2,0.241,0.272,1.11,1.91
TTTATC,0.826,0.442,0.295,0.793,0.935
CATTCT,0.877,0.944,0.882,0.91,0.605
AATATC,0.666,-0.022,0.151,0.706,0.781
CGCAAT,0.384,0.166,0.457,0.435,0.234
ATGTAT,0.845,-0.003,-0.005,0.577,1.07
CGAGAT,-1.03,-0.591,-0.67,-0.916,-0.766
ACGTAC,-1.23,-0.551,-0.646,-1.21,-1.34
